# From the supplement of paper PMC8728848
# The list shows a part of the results.
# Experiments:
# Assay in all cases: glycan array binding signal (z-score within array); higher = stronger binding
# Conditions in all cases: glycan notation: IUPAC condensed, linker removed
# [1] = target: Fuc(a1-2)Gal(b1-4)GlcNAc(b1-3)Gal(b1-4)GlcNAc(b1-3)Gal(b1-4)GlcNAc
# Method in brief: (§1)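 Glycan array data were curated from 3228 arrays in the Consortium for Functional Glycomics database and kept only where the protein sequence was available. Glycan names were converted to IUPAC-condensed notation, and columns mapping to the same glycan were averaged. The binding signal is a within-array Z-score, averaged across arrays of the same protein sequence at different concentrations or buffers and across linkers. Negative Z-scores can be read as non-binding.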
# [2] = target: Fuc(a1-2)Gal(b1-4)GlcNAc(b1-3)GalNAc
# Method in brief: as §1
# [3] = target: Fuc(a1-2)Gal(b1-4)GlcNAc(b1-3)[Fuc(a1-2)Gal(b1-4)GlcNAc(b1-6)]GalNAc
# Method in brief: as §1
# [4] = target: Fuc(a1-2)Gal(b1-4)GlcNAc(b1-3)[Fuc(a1-3)[Gal(b1-4)]GlcNAc(b1-6)]Gal(b1-4)Glc
# Method in brief: as §1
# [5] = target: Fuc(a1-2)Gal(b1-4)GlcNAc(b1-6)GalNAc
# Method in brief: as §1
# [6] = target: Fuc(a1-2)Gal(b1-4)GlcNAc6S
# Method in brief: as §1
# [7] = target: Fuc(a1-2)Gal(b1-4)[Fuc(a1-3)]GlcNAc
# Method in brief: as §1
# [8] = target: Fuc(a1-2)Gal(b1-4)[Fuc(a1-3)]GlcNAc(b1-2)Man(a1-3)[Fuc(a1-2)Gal(b1-4)[Fuc(a1-3)]GlcNAc(b1-2)Man(a1-6)]Man(b1-4)GlcNAc(b1-4)[Fuc(a1-6)]GlcNAc
# Method in brief: as §1
# [9] = target: Fuc(a1-2)Gal(b1-4)[Fuc(a1-3)]GlcNAc(b1-2)[Fuc(a1-2)Gal(b1-4)[Fuc(a1-3)]GlcNAc(b1-4)]Man(a1-3)[Fuc(a1-2)Gal(b1-4)[Fuc(a1-3)]GlcNAc(b1-2)Man(a1-6)]Man(b1-4)GlcNAc(b1-4)GlcNAc
# Method in brief: as §1
# [10] = target: Fuc(a1-2)Gal(b1-4)[Fuc(a1-3)]GlcNAc(b1-3)Gal(b1-4)[Fuc(a1-3)]GlcNAc
# Method in brief: as §1
# [11] = target: Fuc(a1-2)Gal(b1-4)[Fuc(a1-3)]GlcNAc(b1-3)Gal(b1-4)[Fuc(a1-3)]GlcNAc(b1-3)Gal(b1-4)[Fuc(a1-3)]GlcNAc
# Method in brief: as §1
# [12] = target: Fuc(a1-2)Gal(b1-4)[Fuc(a1-3)]GlcNAc(b1-3)GalNAc
# Method in brief: as §1
# [13] = target: Fuc(a1-2)Gal(b1-4)[Fuc(a1-3)]GlcNAc(b1-3)[Neu5Ac(a2-6)Gal(b1-4)GlcNAc(b1-6)]Gal(b1-4)Glc
# Method in brief: as §1
# [14] = target: Fuc(a1-2)Gal3S(b1-4)GlcNAc
# Method in brief: as §1
# [15] = target: Fuc(a1-2)Gal6S(b1-3)GlcNAc
# Method in brief: as §1
# [16] = target: Fuc(a1-2)Gal6S(b1-3)GlcNAc6S
# Method in brief: as §1
# Fuc(a1-2)Gal6S(b1-4)Glc = target: Fuc(a1-2)Gal6S(b1-4)Glc
# Method in brief: as §1
# [17] = target: Fuc(a1-2)Gal6S(b1-4)Glc6S
# Method in brief: as §1
# Fuc(a1-2)[Gal(a1-3)]Gal = target: Fuc(a1-2)[Gal(a1-3)]Gal
# Method in brief: as §1
# [18] = target: Fuc(a1-2)[Gal(a1-3)]Gal(b1-3)GalNAc
# Method in brief: as §1
# [19] = target: Fuc(a1-2)[Gal(a1-3)]Gal(b1-3)GalNAc(b1-3)Gal(a1-4)Gal(b1-4)Glc
# Method in brief: as §1
# [20] = target: Fuc(a1-2)[Gal(a1-3)]Gal(b1-3)GlcNAc
# Method in brief: as §1
# [21] = target: Fuc(a1-2)[Gal(a1-3)]Gal(b1-3)GlcNAc(b1-2)Man(a1-3)[Fuc(a1-2)[Gal(a1-3)]Gal(b1-3)GlcNAc(b1-2)Man(a1-6)]Man(b1-4)GlcNAc(b1-4)GlcNAc
# Method in brief: as §1
# [22] = target: Fuc(a1-2)[Gal(a1-3)]Gal(b1-3)GlcNAc(b1-2)Man(a1-3)[Fuc(a1-2)[Gal(a1-3)]Gal(b1-3)GlcNAc(b1-2)Man(a1-6)]Man(b1-4)GlcNAc(b1-4)[Fuc(a1-6)]GlcNAc
# Method in brief: as §1
# [23] = target: Fuc(a1-2)[Gal(a1-3)]Gal(b1-3)GlcNAc(b1-3)GalNAc
# Method in brief: as §1
# [24] = target: Fuc(a1-2)[Gal(a1-3)]Gal(b1-3)GlcNAc(b1-6)GalNAc
# Method in brief: as §1
# [25] = target: Fuc(a1-2)[Gal(a1-3)]Gal(b1-4)Glc
# Method in brief: as §1
# [26] = target: Fuc(a1-2)[Gal(a1-3)]Gal(b1-4)GlcNAc
# Method in brief: as §1
# [27] = target: Fuc(a1-2)[Gal(a1-3)]Gal(b1-4)GlcNAc(b1-2)Man
# Method in brief: as §1
# [28] = target: Fuc(a1-2)[Gal(a1-3)]Gal(b1-4)GlcNAc(b1-2)Man(a1-3)[Fuc(a1-2)[Gal(a1-3)]Gal(b1-4)GlcNAc(b1-2)Man(a1-6)]Man(b1-4)GlcNAc(b1-4)GlcNAc
# Method in brief: as §1
binder,measurement,setting,value
PfulAvr4 (Pseudocercospora fuligena) (protein) HHHHHHDYKDDDDKTYVQDKTPAFVCPAADIKTTKCLGPKDCLYPSPKTCNGYIQCSPADDSYLTGIIHEMPCPSGLLWNDNKKWCDWPENTTCGLVKSAGATEVDATKQGPTPGKYHG,glycan array binding signal (z-score),[1],-0.092
same,glycan array binding signal (z-score),[2],-0.117
same,glycan array binding signal (z-score),[3],-0.054
same,glycan array binding signal (z-score),[4],-0.102
same,glycan array binding signal (z-score),[5],-0.055
same,glycan array binding signal (z-score),[6],-0.141
same,glycan array binding signal (z-score),[7],-0.091
same,glycan array binding signal (z-score),[8],-0.125
same,glycan array binding signal (z-score),[9],0.683
same,glycan array binding signal (z-score),[10],-0.103
same,glycan array binding signal (z-score),[11],-0.046
same,glycan array binding signal (z-score),[12],-0.18
same,glycan array binding signal (z-score),[13],-0.22
same,glycan array binding signal (z-score),[14],-0.119
same,glycan array binding signal (z-score),[15],-0.18
same,glycan array binding signal (z-score),[16],-0.137
same,glycan array binding signal (z-score),Fuc(a1-2)Gal6S(b1-4)Glc,-0.115
same,glycan array binding signal (z-score),[17],-0.184
same,glycan array binding signal (z-score),Fuc(a1-2)[Gal(a1-3)]Gal,-0.109
same,glycan array binding signal (z-score),[18],-0.133
same,glycan array binding signal (z-score),[19],-0.115
same,glycan array binding signal (z-score),[20],-0.171
same,glycan array binding signal (z-score),[21],-0.05
same,glycan array binding signal (z-score),[22],0.101
same,glycan array binding signal (z-score),[23],-0.056
same,glycan array binding signal (z-score),[24],-0.025
same,glycan array binding signal (z-score),[25],-0.08
same,glycan array binding signal (z-score),[26],-0.096
same,glycan array binding signal (z-score),[27],-0.124
same,glycan array binding signal (z-score),[28],-0.075
